Data on 106 sequences can be found in the supplement of paper PMC10126150.

Values marked as one replicate rest on one cluster of the flow cell; about a third of the high ones do not repeat.
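Note: ATP exposure 15 min at 22 °C before imaging.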

The first data set has as its system ATP. Put plainly: switch fluorescence ratio, 500 uM ATP over buffer (Cy3 cluster intensity, sum of 5 cycles each) (fold (ratio)); higher = stronger signal-on switching upon ATP binding. The following applies: aptamer strand: ATP DNA aptamer (quencher-CACCTGGGGGAGTATTGCGGAGGAAGG + anchor), 100 nM annealed; ATP concentration: 500 uM; one replicate. The gist of the method: (§1)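 After annealing to 100 nM quencher-labelled ATP aptamer, Cy3-labelled switching-strand clusters on a modified Illumina MiSeq flow-cell were imaged in selection buffer. A second image followed after 15 min with 500 uM ATP at 22 °C, and five such buffer/ATP cycles were done, each separated by NaOH stripping and re-annealing. The fluorescence ratio, averaged per switch-domain sequence, is summed target-cycle over summed buffer-cycle Cy3 intensity per cluster, with clusters outside 100-1000 RFU excluded.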
In the case of “TCGTCGGCAGCGTCAGATGTGTATAAGAGACAGTTTTTTTTTTTTTTTTTTTTTTTTTGTTTC”, the switch fluorescence ratio came to 1.06.

A further data set has as its system ATP. Put plainly: switch fluorescence ratio, 500 uM ATP over buffer (Cy3 cluster intensity, sum of 5 cycles each) (fold (ratio)); higher = stronger signal-on switching upon ATP binding; sequences stand for … in TCGTCGGCAGCGTCAGATGTGTATAAGAGACAGTTTTTTTTTTTTTTTTTTTTTTTTT…TC. The following applies: aptamer strand: ATP DNA aptamer (quencher-CACCTGGGGGAGTATTGCGGAGGAAGG + anchor), 100 nM annealed; ATP concentration: 500 uM; one replicate. In a few lines:
as §1
As to ACTGGCCCCC, the switch fluorescence ratio is 1.03. For ACTCATCCAT, the switch fluorescence ratio turned out to be 1.04. On the same count and under the same terms, the result for TTCTCGAGA reads 0.999. Still for that read-out and setting: the same measure for AGGGTCTAGT: 1.

As to CTCTAGGGTG, the switch fluorescence ratio stood at 1.13.

Regarding TTTGATCAGG, the switch fluorescence ratio is 1. Consider ATGGGTCATC, for which the switch fluorescence ratio turned out to be 0.997. Still for that read-out and setting: the same measure for CAGCGGCCG: 1.05; for GTAGGGAAGA: 0.949. Consider AAACGGCCAT, for which the switch fluorescence ratio is 1.08. Consider GTTCCGATGT, for which the switch fluorescence ratio worked out at 1.2. On the same count and under the same terms, the result for TGTTTGGACG reads 1.01. Consider GTTAACGATG, for which the switch fluorescence ratio was 0.96. Consider AAAGGCCTCC, for which the switch fluorescence ratio was 1.04.

With CAGTTCACGA, the switch fluorescence ratio was determined as 0.958.

On to CTTAGAGACA, for which the switch fluorescence ratio was 0.953. The same measure, in the same setting: the same measure for GCCAGGAATC: 1.02. Consider TGAGAGTGTC, for which the switch fluorescence ratio amounted to 1.04.

Turning to CGGGCACCGC, the switch fluorescence ratio is 0.872. Turning to TAATTTCAGT, the switch fluorescence ratio stood at 0.99. On to TATGGAGTCG, for which the switch fluorescence ratio stood at 0.981. On the same count and under the same terms, the result for GGACCCAAGC reads 1.04. On to ATTTAGGAG, for which the switch fluorescence ratio stood at 1.01. As to AGGGCCCAGC, the switch fluorescence ratio stood at 1. The same measure, in the same setting: the same measure for ATGGTGAACA: 0.984.

Consider GAGAGTCCTC, for which the switch fluorescence ratio was 1.01. Take GCTTAAGAGC: the switch fluorescence ratio was found to be 0.957. Consider GATACTATAA, for which the switch fluorescence ratio is 1.02. Consider CATCTAAGT, for which the switch fluorescence ratio is 1.01. For CGAGTTGCCC, the switch fluorescence ratio was determined as 0.988. For CGGCTAAATT, the switch fluorescence ratio is 0.986. Same read-out and setting: the same measure for TGGAGAAGTT: 1.23; for CGATGTCTGG: 0.962; for CATTGGGATT: 0.979. The same measure, in the same setting: the result for ACTGTGTGGG reads 0.998; that for AATTCAGTTG, 1.01; that for ACCCAAGGGG, 1.24.

Take GGTTAGGCGA: the switch fluorescence ratio was determined as 1.01. Still for that read-out and setting: the same measure for GCTAAAGCCG: 1.02; for CAGGGGTAAG: 0.971; for TTTAAATTA: 1. Regarding TGCAGTCTC, the switch fluorescence ratio was determined as 1.01.

In the case of AAGCGCCCGT, the switch fluorescence ratio stood at 1.03. On to GGGAATTGGA, for which the switch fluorescence ratio is 0.953.

As for GGTGGCGTGT, the switch fluorescence ratio worked out at 1.01. With TCCGTGCGCT, the switch fluorescence ratio amounted to 3.77. For the sequence ACATTAACAA, the switch fluorescence ratio is 1.03. On the same count and under the same terms, the result for GAGGAACAAA reads 0.973; that for ACGATCGTA, 0.998; that for TGAGAGCACT, 1.03. On the same count and under the same terms, the result for TAGTGACTGT reads 1.02; that for CCCCTGGAGA, 1.05.

As to ATCTGTTCAT, the switch fluorescence ratio is 0.982. Still for that read-out and setting: the same measure for ACAATGCTTA: 1.03; for TAGTAACACC: 1.04; for AATAGATTGA: 1.02. On the same count and under the same terms, the same measure for GCCGGAGCAT: 1.37. With GAAGTACTCG, the switch fluorescence ratio was determined as 1.13. The same measure, in the same setting: the same measure for TTGCCGACGA: 1.01. The same measure, in the same setting: the same measure for AGCCCGACAT: 0.987.

As for GCACTCCGTT, the switch fluorescence ratio is 1.25. For TTAGCCTTTT, the switch fluorescence ratio turned out to be 0.968.

Take CGCGTTGTTC: the switch fluorescence ratio stood at 0.992. The same measure, in the same setting: the same measure for ATTTAAGTAG: 1.02; for ATTCGCAGAT: 1.06. The same measure, in the same setting: the result for CATGAGCATC reads 1.18; that for AATGAATAGT, 1.03; that for GGCATCCTC, 1.05. For CCCACCGGCA, the switch fluorescence ratio came out at 1.24. Regarding TTAATTATT, the switch fluorescence ratio came to 1.01.

With TTCACAACGC, the switch fluorescence ratio came out at 1.08. As to CACGCAAGTT, the switch fluorescence ratio is 1.22. On to TTTAGTTCA, for which the switch fluorescence ratio came to 0.998. Turning to ACATGAGTAC, the switch fluorescence ratio came out at 1.04.

Turning to CTGATGGGAG, the switch fluorescence ratio amounted to 1.03. Take GGATGAGGAT: the switch fluorescence ratio came to 0.95.

Take TACTCTTTCA: the switch fluorescence ratio was 1.01. Regarding CGATGAGTC, the switch fluorescence ratio turned out to be 1.01. Consider GCGCGGTCTA, for which the switch fluorescence ratio was found to be 1.05. The same measure, in the same setting: the result for ACTAATGTCC reads 1.12; that for TACTTTCCTA, 1.02.

As to CTAGGTCAAC, the switch fluorescence ratio stood at 0.985. For the sequence GTGATACAC, the switch fluorescence ratio amounted to 1.06. With TAATCACGTA, the switch fluorescence ratio was 1.05. On the same count and under the same terms, the result for TTAAGGGG reads 1.04; that for GAATTCATCG, 1.01. As to GCATCATTGG, the switch fluorescence ratio was 1.02. As to ATTGCTTTAA, the switch fluorescence ratio is 1.03. Turning to CATGAAGGTG, the switch fluorescence ratio was determined as 1.46. The same measure, in the same setting: the same measure for CCGAGTCGTA: 1.09. The same measure, in the same setting: the result for TCCTTGAGGG reads 0.994. As for CTTGTGTTTC, the switch fluorescence ratio is 1.03. On to CGTCTGTGTC, for which the switch fluorescence ratio came to 0.998. Turning to GGCGGTCTTA, the switch fluorescence ratio is 0.988.

For AGATACGTTG, the switch fluorescence ratio turned out to be 1.04. The same measure, in the same setting: the same measure for AGACCCCCTA: 1.3. In the case of CTCGGTCGGG, the switch fluorescence ratio was 0.997. The same measure, in the same setting: the same measure for AGCTTTGTTA: 0.977; for TTTATTTTAC: 1.06. Take AGGGGACCGT: the switch fluorescence ratio amounted to 0.998. The same measure, in the same setting: the same measure for AGAACGATGT: 1.32; for CCCCAACAGA: 1.08; for CTTTGGGGAG: 1.33. Turning to TAAAGATGTA, the switch fluorescence ratio was determined as 1.07. As to TACGGACTTG, the switch fluorescence ratio amounted to 1.06.
